This experiment concerns the target T1, IL-15 receptor subunit β (IL-15Rβ)-Fc (UniProt P14784 27-239).
T1 construct: also called IL-15R13-Fc; IL-2/15β receptor; not shown: Fc part
T1 sequence (looked up): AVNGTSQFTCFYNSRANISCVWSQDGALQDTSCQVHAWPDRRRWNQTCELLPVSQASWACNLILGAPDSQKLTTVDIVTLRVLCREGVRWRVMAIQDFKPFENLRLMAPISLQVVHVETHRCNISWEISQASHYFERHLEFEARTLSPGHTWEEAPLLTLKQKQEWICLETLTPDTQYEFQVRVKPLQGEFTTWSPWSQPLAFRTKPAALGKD
Nature of the experiment: SPR, IL-15Rβ-Fc immobilized on chip.

We go through four molecules from US20230141575A1 (CITY OF HOPE, published 2023).

B1: 1215-1045 null (IL-15_linker1_HC Fab_linker2_IL-15Ra and LC Fab) (other)
heavy: [about 120 residues cut from this listing]GGVPLSLYSGG[about 120 residues cut from this listing]ASTKGPSVFPLAPSSKSTSGGTAALGCLVKDYFPEPVTVSWNSGALTSGVHTFPAVLQSSGLYSLSSVVTVPSSSLGTQTYICNVNHKPSNTKVDKKVEPKSCGGGSGAGAGITCPPPMSVEHADIWVKSYSLYSRERYICNSGFKRKAGTSSLTECVLNKATNVAHWTTPSLKCIRDPALVHQRPAPPS
light: DIQMTQSPILLSASVGDRVTITCRASQDVNTAVAWYQQRTNGSPRLLIYSASFLYSGVPSRFSGSRSGTDFTLTISSLQPEDIADYYCQQHYTTPPTFGAGTKVEIKRTVAAPSVFIFPPSDEQLKSGTASVVCLLNNFYPREAKVQWKVDNALQSGNSQESVTEQDSKDSTYSLSSTLTLSKADYEKHKVYACEVTHQGLSSPVTKSFNRGEC
notes: Fab-cytokine fusion, not treated with MMP ('null'); also called IL-15-Fab complex 1215-1045
Consider B1, for which binding was characterised by a dissociation constant (Kd) of 21.9 nM, the koff turned out to be 0.00256 s⁻¹ and the kon was 117000 M⁻¹ s⁻¹.

B2: 1215-1046 null (IL-15_linker1_HC Fab_linker2_IL-15Ra and LC Fab, non-cleavable linker) (other)
heavy: [about 120 residues cut from this listing]GGSPSGASGS[about 120 residues cut from this listing]ASTKGPSVFPLAPSSKSTSGGTAALGCLVKDYFPEPVTVSWNSGALTSGVHTFPAVLQSSGLYSLSSVVTVPSSSLGTQTYICNVNHKPSNTKVDKKVEPKSCGGGSGAGAGITCPPPMSVEHADIWVKSYSLYSRERYICNSGFKRKAGTSSLTECVLNKATNVAHWTTPSLKCIRDPALVHQRPAPPS
light: DIQMTQSPILLSASVGDRVTITCRASQDVNTAVAWYQQRTNGSPRLLIYSASFLYSGVPSRFSGSRSGTDFTLTISSLQPEDIADYYCQQHYTTPPTFGAGTKVEIKRTVAAPSVFIFPPSDEQLKSGTASVVCLLNNFYPREAKVQWKVDNALQSGNSQESVTEQDSKDSTYSLSSTLTLSKADYEKHKVYACEVTHQGLSSPVTKSFNRGEC
notes: Fab-cytokine fusion with a non-cleavable linker 1
Take B2: the dissociation constant (Kd) turned out to be 20.5 nM, the koff is 0.00308 s⁻¹ and the kon was found to be 150000 M⁻¹ s⁻¹.

B3: 1215-1048 null (IL-15_linker1_HC Fab_linker2_IL-15Ra and LC Fab, non-cleavable linker, Cys mutations IL-15Ra-P67C, IL-15-E90C) (other)
heavy: [about 120 residues cut from this listing]GGSPSGASGS[about 120 residues cut from this listing]ASTKGPSVFPLAPSSKSTSGGTAALGCLVKDYFPEPVTVSWNSGALTSGVHTFPAVLQSSGLYSLSSVVTVPSSSLGTQTYICNVNHKPSNTKVDKKVEPKSCGGGSGAGAGITCPPPMSVEHADIWVKSYSLYSRERYICNSGFKRKAGTSSLTECVLNKATNVAHWTTPSLKCIRDCALVHQRPAPPS
light: DIQMTQSPILLSASVGDRVTITCRASQDVNTAVAWYQQRTNGSPRLLIYSASFLYSGVPSRFSGSRSGTDFTLTISSLQPEDIADYYCQQHYTTPPTFGAGTKVEIKRTVAAPSVFIFPPSDEQLKSGTASVVCLLNNFYPREAKVQWKVDNALQSGNSQESVTEQDSKDSTYSLSSTLTLSKADYEKHKVYACEVTHQGLSSPVTKSFNRGEC
notes: Fab-cytokine fusion with a non-cleavable linker 1 and the Cys mutations
B3 came in with a Kd of 33.4 nM, a koff of 0.00632 s⁻¹ and a kon of 189000 M⁻¹ s⁻¹.

B4: 1215-1047 null (IL-15_linker1_HC Fab_linker2_IL-15Ra and LC Fab, Cys mutations IL-15Ra-P67C, IL-15-E90C) (other)
heavy: [about 120 residues cut from this listing]GGVPLSLYSGG[about 120 residues cut from this listing]ASTKGPSVFPLAPSSKSTSGGTAALGCLVKDYFPEPVTVSWNSGALTSGVHTFPAVLQSSGLYSLSSVVTVPSSSLGTQTYICNVNHKPSNTKVDKKVEPKSCGGGSGAGAGITCPPPMSVEHADIWVKSYSLYSRERYICNSGFKRKAGTSSLTECVLNKATNVAHWTTPSLKCIRDCALVHQRPAPPS
light: DIQMTQSPILLSASVGDRVTITCRASQDVNTAVAWYQQRTNGSPRLLIYSASFLYSGVPSRFSGSRSGTDFTLTISSLQPEDIADYYCQQHYTTPPTFGAGTKVEIKRTVAAPSVFIFPPSDEQLKSGTASVVCLLNNFYPREAKVQWKVDNALQSGNSQESVTEQDSKDSTYSLSSTLTLSKADYEKHKVYACEVTHQGLSSPVTKSFNRGEC
notes: Fab-cytokine fusion, not treated with MMP; The cysteines at IL-15 position 90 and IL-15Ra position 67 are meant to form a disulfide bond between IL-15 and the sushi domain
Molecule B4 showed a Kd of 22.9 nM, a koff of 0.00375 s⁻¹ and a kon of 164000 M⁻¹ s⁻¹.

One may read the Kd as the concentration at which binding is half-saturated. Read a high Kd as weaker binding. The term koff denotes the rate constant with which the complex falls apart. Usually kon stands for the second-order rate constant of association. Low readings indicate slower complex formation, high ones faster complex formation.
